According to the supplement of paper PMC11417369:
Some of the results follow.

system: PF3D7_0420300 AP2 domain 1 (GST-tagged); assay: gcPBM binding intensity (ln(normalized median fluorescence intensity)); higher = stronger DNA binding
Summary of the method: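 Probes on an Agilent 4 × 180k array were primer-extended, double-stranded and 36 bp long, taken from intergenic genomic regions, with negative controls added. GST-tagged P. falciparum DNA-binding domains from E. coli, about 25 μg on average, were applied to the array for 1 h in 1× PBS containing 1% milk, 0.2 mg/ml BSA, 0.5% salmon testes DNA and 0.03% Triton X-100. Binding intensity, obtained after Alexa488 anti-GST antibody detection and a 488 nm scan, is the highest Masliner-normalised natural-log median intensity across replicate spots of either probe orientation.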

Row | Sequence | gcPBM binding intensity (ln)
1 | TTTTTTTTTCTTTCTTTCTTTTGTAAAAACCTCAAA [CACACA_negctrl_site723] | 8.89
2 | ATATGTATATATAAAAGTACGCGTAAAAAAAAAAAA [XGTACX_site5377] | 9.56
3 | TTTTTATAAATACACATAAATATATATATATATATA [TGCATGCA_negctrl_site393] | 8.95
4 | ACACAAAAAAATATATATATATATATATATATGTTA [CACACA_negctrl_site55] | 9.09
5 | AAAAAAAAAAAAAAATGTACATTTTGAAAGGATATA [XGTACX_site8217] | 9.07
6 | ATGCATTATTAGAATACACACCATACGCATATTTAT [CACACA_site4319] | 9.48
7 | TAAAGAAAAAGAGAATGTACATGAGAAAAGTATACT [XGTACX_site7472] | 9.6
8 | AGAAAAAAAAAAAAATGTACAGACTTTTTCTTATAA [XGTACX_site6481] | 8.93
9 | AATCACAACAGACACACACACAAAAAAAAAAAAAAA [CACACA_site1442] | 9.5
10 | ATATGTTATATAAATATATATATATATATATATATA [TGCATGCA_negctrl_site594] | 9.01
11 | TTAATATAATAGAAGTGTACACACATATTTATGTGT [XGTACX_site6672] | 9.6
12 | TATTTATAAACATACGCACACATTAAAATATATATA [CACACA_site6051] | 9.51
13 | ATATATATATATATAGTGCATAAAATAAGTTTCTAA | 9.18
14 | TAATAATAAAAATAAACACACATATATCTGTATTTA [CACACA_site5572] | 9.33
15 | GGTGGAAACAATTACACACACACAAAAAAAAAAAAA [CACACA_site3208] | 9.83
16 | CAATCATGGGTTTACACACACATGCATGTGAAAATT [CACACA_site1349] | 9.71
17 | ATTTTTGCAGTAATTAAATAGACAAAATGAAAAAAA [CACACA_negctrl_site1537] | 9.16
18 | GATGATAATAAATTTATATATAATATTATCTTATGT [GTGCAC_negctrl_site672] | 9.13
19 | CATATTAAAAATTATTGTACATATTAATGAATATAA [XGTACX_site2734] | 9.03
20 | AACCAAACAAATAAACGTACAAACATTACATATATT [XGTACX_site2265] | 9.67
21 | ACAATAAAGAAGTGTACACATATATCAATAAAAAAA [CACACA_site5228] | 9.39
22 | AAAATAATATTTAATACACACATAATTTTAATATAA [CACACA_site4588] | 9.46

Row | Sequence | gcPBM binding intensity (ln)
23 | TACTTATATTATTTTATTATTAAATTTAAAACGAAA [CACACA_negctrl_site736] | 8.91
24 | ATATACACACAAAAACGTACACATATATATATGTAT [XGTACX_site2673] | 9.84
25 | GGTATAATAATATATAGTACACACAAAAATGGAAGT [XGTACX_site7058] | 9.94
26 | AAAAAAAAAAAAAGCACACATATAAATATGAATAAA [CACACA_site1393] | 9.41
27 | AAAAAAAAAAAAAACACACACATACACCCAAAAATG [CACACA_site4223] | 9.84
28 | TCAAAAATAAAGATCACACATATATATATATATATA [CACACA_site4381] | 9.2
29 | ATGTACAAAATAAGCACACACAAAAAAAAAAAAAAT [CACACA_site2998] | 9.91
30 | TCTAATTACAAAAACATACACACAAAAAAAAAAAAA [CACACA_site3783] | 9.74
31 | CCTATAAATGCATTCACACATATATATTTATATTAT [CACACA_site6086] | 9.26
32 | GTAAGAAACAGACACACACACATATATATATATATA [CACACA_site794] | 9.79
33 | GAACAGTTTGTTTAGTGTACTTTTTTTTTTTTTTTT [XGTACX_site8881] | 9.22
34 | AATAATTTTATCGGTACACACTGTATGCATAATATT [CACACA_site4364] | 9.53
35 | TTTGATCGATGGATTTAACACACAAAAAAAAAAAAA [CACACA_site9279] | 9.15
36 | CTTAATTTAATGAAATGTACATATAAAAATATTATA [XGTACX_site3303] | 8.88
37 | CTATAAATATTTTATTGTACACACTTTTTATGAATG [XGTACX_site6711] | 9.43
38 | ATATATATATAGTGCACACTTAAGAATATAAAGAGG [CACACA_site1151] | 9.45
39 | AAAATTTTTAGTTATACACACAACATAGAAAATATT [CACACA_site328] | 9.47
40 | AATACATACAGACACACACACACATATATATATATA [CACACA_site3558] | 10.1
41 | CACATACACCCATACACACACATATATATTAAGATA [CACACA_site4459] | 9.96
42 | ATGATAAACATGGATACACACATATAGATTGCATAT [CACACA_site6843] | 9.61
43 | TTCATCTTAAAATTGGGTACATAACACAAAGTATAA [XGTACX_site1894] | 9
44 | ATATATATTAACAATACACACGTGTATACCTTATTG [CACACA_site5258] | 9.55
